# Test results: PubChem BioAssay AID686979 (National Center for Advancing Translational Sciences (NCATS), 2013)
# Where “and” joins values, the source holds several entries; their conditions need not be identical. Equal values may be shown once. Out of some 420,000 compounds screened, about 50,000 (12%) were called active. Inconclusive results, whose numbers are uncertain, are shown with a selection of clear calls. The call rests on the fitted dose curve; in most records, active means well fitted inhibition curve with a large enough effect; inconclusive means small, poorly fitted or top-dose-only effect; inactive means flat fitted curve, though single readings scatter. Potencies of inconclusive entries are left out as doubtful fits.
# Test: qHTS for Inhibitors of human tyrosyl-DNA phosphodiesterase 1 (TDP1): qHTS in cells in presence of CPT; further: nearly all actives have a fitted effect of over 55% in size
# Conditions: chicken DT40 Tdp1-/-;hTDP1 cells + 20 nM CPT, ATP luminescence, 48 h; series mostly up to 46.2 µM
# Summary of the method: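 Chicken DT40 Tdp1-/- cells complemented with human TDP1, 400 cells/well, exposed to compounds plus 20 nM camptothecin for at least 48 h at 37 C; viability read as ATP content by CellTiter-Glo luminescence.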
# Potency means the concentration at half of the fitted maximal effect; tags describe the fitted curve by direction and shape.
row,SMILES,Potency
1,CCC(=O)N1CCc2cc(CNS(=O)(=O)c3ccc(C(C)C)cc3)ccc21,"inconclusive [inhibitor, single point]"
2,Nc1nc2nc(-c3ccccc3)cc(C(F)(F)F)c2s1,"inconclusive [inhibitor, single point]"
3,Cc1ccc(C)c(N2CCN(C(=O)CCS(=O)(=O)c3cc(Br)cc4c3N(C(=O)C3CC3)CC4)CC2)c1,"inconclusive [inhibitor, single point]"
4,Cc1cc2c(=O)[nH]c(Cc3ccccc3)nc2s1,"inconclusive [inhibitor, single point]"
5,Cc1nc(CN(C)Cc2nc(Cc3ccccc3Cl)no2)cs1,inactive
6,CC1=C(C(=O)Nc2ccccc2)C(c2cccs2)n2nnnc2N1 (stereo not drawn),inactive
7,Oc1cc2c(cc1C(c1ccc(Cl)c(Cl)c1)N1CCCC1)OCO2 (stereo not drawn),"inconclusive [inhibitor, single point]"
8,CCC(CC)NC(=O)Nc1cccc(C)c1C,inactive
9,O=C1c2ccccc2/C(=C\c2ccc3[nH]ccc3c2)N1c1ccccc1,"inconclusive [inhibitor, single point]"
10,O=C(CSc1nnc(NC2CCCCC2)s1)NC1CCS(=O)(=O)C1 (stereo not drawn),inactive
11,CCCOc1ccc(F)cc1-c1cc(C(=O)Nc2ccc(OC)nc2)[nH]n1,"inconclusive [inhibitor, single point]"
12,COc1cc(NC(=O)CCc2c(C)nc3c(-c4ccc(F)cc4)c(C)nn3c2C)cc(OC)c1OC,active: 5.17 µM
13,COc1ccc(CN(C)C(=O)c2ccc(NC(=O)CC3SC(N4CCCCC4)=NC3=O)cc2)c(OC)c1 (stereo not drawn),"inconclusive [inhibitor, single point]"
14,O=C(NCc1ccncc1)C(=O)NCC(c1ccco1)N1CCN(c2ccccc2)CC1 (stereo not drawn),"inconclusive [inhibitor, single point]"
15,CCOc1ccc(NC(=O)CC2C(=O)N(c3ccc(OC)cc3)C(=O)N2C2CCCCC2)cc1 (stereo not drawn),inactive
16,Cc1noc(-c2ccccc2)c1NC(=O)Nc1ccccc1,"inconclusive [inhibitor, single point]"
17,Cc1ccccc1-n1cnc2c(sc3nc(N4CCOCC4)c4c(c32)CCCC4)c1=O,active: 18.4 µM
18,COc1ccccc1-c1cc(C(=O)N/N=C/c2sccc2C)c2ccccc2n1,active: 6.51 µM
19,O=C(CCS(=O)(=O)c1ccc(F)cc1)Nc1nc(-c2ccccn2)cs1,active: 8.2 µM
20,CCC(C)Nc1ccc(NC(C)CC)cc1 (stereo not drawn),active: 1 µM and active: 4.11 µM
21,CCCSc1ncc(Cl)c(C(=O)N2CCN(c3cccc(Cl)c3)CC2)n1,active: 1.84 µM
22,COc1ccc(C(=O)N2CCCCC2c2cc(C(=O)Nc3cccc(C#N)c3)no2)cc1 (stereo not drawn),active: 23.1 µM
23,O=C1CC(c2ccc(S(=O)(=O)NCc3ccncc3)cc2)CN1 (stereo not drawn),"inconclusive [inhibitor, partial curve]"

row,SMILES,Potency
1,CCOc1ccc2nc(NC(=O)Cn3cnc4c3c(=O)n(C)c(=O)n4C)sc2c1,inactive
2,CCOc1ccc(C(=O)Oc2c(Sc3ccccc3)c(C)nn2C(C)(C)C)cc1OCC,"inconclusive [inhibitor, partial curve]"
3,Cc1ccc(CCNC(=O)C2CCCN2S(=O)(=O)c2ccc3c(c2)CCC(=O)N3)cc1 (stereo not drawn),"inconclusive [inhibitor, single point]"
4,Cc1ccc(NC(=O)c2cccc(S(=O)(=O)N(C)C3CCCCC3)c2)nc1,"inconclusive [inhibitor, partial curve]"
5,CCOC(=O)c1cc2c(ccn2C)n1CC(=O)N(Cc1ccccc1)c1ccc(F)cc1,inactive
6,CCc1ccc2occ(CC(=O)Nc3ccc(OC)c(Cl)c3)c2c1,"inconclusive [inhibitor, single point]"
7,Cc1nc(NCc2ccccc2)c2cc[nH]c2n1,"inconclusive [inhibitor, single point]"
8,COC(=O)N1CCC2(CC1)CN(c1ccccn1)C2,inactive
9,COc1ccc(Cl)cc1Nc1ncnc2sc(C)c(S(=O)(=O)N3CCC(C)CC3)c12,"inconclusive [inhibitor, single point]"
10,CS(=O)(=O)Nc1c(O)ccc2c1CCC[C@H]2C1=NCCN1,inactive
11,Cc1ccc(S(=O)(=O)CCC(=O)OCC(=O)NC(=O)c2ccccc2)cc1,inactive
12,COc1ccc(CN(Cc2ccco2)C(=O)COc2ccccc2OC)cc1,"inconclusive [inhibitor, single point]"
13,CC(=O)c1ccc(NC(=O)Nc2sc3nc4n(c(=O)c3c2C)CCC(C)CC4)cc1 (stereo not drawn),active: 5.8 µM
14,CC(C)c1ccc(Nc2nnc(SCC(=O)Nc3ncc(S(=O)(=O)c4ccc([N+](=O)[O-])cc4)s3)s2)cc1,"inconclusive [inhibitor, single point]"
15,COc1ccc(NC(=O)c2c(Nc3ccccc3)sc(C(=O)c3ccc(F)cc3)c2N)cc1,active: 2.31 µM
16,Cc1ccc(-n2c(SCC(=O)NCCN3C(=O)CSC3=O)nnc2-c2ccccc2F)cc1,inactive
17,CCc1ccccc1-n1cnc2cc(C(=O)NC3CCCCCC3)ccc21,"inconclusive [inhibitor, single point]"
18,COc1ccc(CCN(C)CC(O)COc2c(C)ccc(C)c2C)cc1OC (stereo not drawn),"inconclusive [inhibitor, single point]"
19,CCCCN(CCCC)Cc1cc(=O)oc2ccc3ccccc3c12,"inconclusive [inhibitor, single point]"
20,Nc1ncnc2c1nc(Cl)n2[C@@H]1O[C@H](CO)[C@@H](O)[C@@H]1O,active: 1 µM
21,CCc1cccc(NC(=S)N(CCOC)C(C)c2ccco2)c1 (stereo not drawn),"inconclusive [inhibitor, single point]"
22,CCn1c(SCC(=O)Nc2ccc3c(c2)OCO3)nc2c(c1=O)SC(C)C2 (stereo not drawn),"inconclusive [inhibitor, single point]"
23,N#C/C(=C/c1ccc(N2CCCCCC2)o1)c1cccc(F)c1,"inconclusive [inhibitor, single point]"

row,SMILES,Potency
1,CC(C)(C)c1ccc(OCCC(=O)OCC(=O)Nc2cccnc2Cl)cc1,"inconclusive [inhibitor, single point]"
2,COc1ccc(-c2cc(-c3ccc(Cl)cc3)n[nH]2)c(O)c1,"inconclusive [inhibitor, partial curve]"
3,C[C@H](C(=O)O)c1cccc(C(=O)c2ccccc2)c1,inactive
4,Cc1ccc2sc(N(CCCN(C)C)C(=O)c3ccc(S(=O)(=O)N4CCOCC4)cc3)nc2c1C,"inconclusive [inhibitor, single point]"
5,CCCCN1C(=O)/C(=C/C=C2/C=Cc3ccccc3N2CC)SC1=S,"inconclusive [inhibitor, partial curve]"
6,O=C(O)c1ccc(NS(=O)(=O)c2ccc3c(c2)C2C=CCC2C(c2ccccc2F)N3)cc1 (stereo not drawn),inactive
7,Nc1c(C(=O)NCc2ccco2)c2nc3ccccc3nc2n1CCc1ccccc1,"inconclusive [inhibitor, single point]"
8,Cc1ccc(S(=O)(=O)NCCC(=O)OCC(=O)N(Cc2ccccc2)C(C)(C)C)cc1C,"inconclusive [inhibitor, single point]"
9,Cc1ccc(NC(=O)Cc2ccccc2F)cc1S(=O)(=O)N1CCCCCC1,"inconclusive [inhibitor, partial curve]"
10,O=C(O)c1cccc(-n2c(O)c(C=C3N=c4ccccc4=N3)sc2=S)c1,"inconclusive [inhibitor, single point]"
11,OC(c1ccccc1)(c1nc(-c2ccc(Cl)cc2)cs1)C(F)(F)F (stereo not drawn),"inconclusive [inhibitor, single point]"
12,Cc1ccc(NC(=O)COC(=O)c2c(-c3ccccc3)noc2C)c(C)c1,"inconclusive [inhibitor, single point]"
13,O=C(Nc1ccccc1Cl)[C@H](CSCc1ccccc1)N1Cc2ccccc2C1=O,"inconclusive [inhibitor, single point]"
14,COc1ccccc1NS(=O)(=O)c1cc(C(=O)N2CCN(C/C=C/c3ccccc3)CC2)ccc1C,"inconclusive [inhibitor, single point]"
15,COc1ccccc1N1CCN(S(=O)(=O)c2ccc(F)c(C(=O)Nc3ccc(Cl)cc3C(F)(F)F)c2)CC1,"inconclusive [inhibitor, single point]"
16,COc1ccc2oc(C(=O)OCC(=O)N3CCN(S(=O)(=O)c4ccccc4)CC3)c(C)c2c1,"inconclusive [inhibitor, single point]"
17,CSc1nnc(CNS(=O)(=O)c2ccc(F)cc2F)n1-c1ccccc1C,"inconclusive [inhibitor, single point]"
18,COc1ccc(/C=C/CN2CCCC(CCC(=O)NCc3ccc(F)c(F)c3)C2)cc1 (stereo not drawn),"inconclusive [inhibitor, single point]"
19,CCOC(=O)Cc1nnc(Nc2ccc(C)cc2)c2ccccc12,inactive
20,O=C(CN1C(=O)CSc2ccc(S(=O)(=O)N3CCCC3)cc21)NCc1ccccc1Cl,"inconclusive [inhibitor, partial curve]"
21,CC(C)=CCCC(C)c1cc(C(=O)NCCc2ccc(O)cc2)c(N)s1 (stereo not drawn),"inconclusive [inhibitor, single point]"
22,CCOC(=O)c1nc(Nc2ccc(N3CCOCC3)cc2)c2ccccc2n1,"inconclusive [inhibitor, single point]"
